Test results taken from PubChem BioAssay AID720709 (National Center for Advancing Translational Sciences (NCATS), 2013).
Screen size: about 360,000 compounds; about 520 (0.14%) were called active. The inconclusive results got no clear call from the source; some entries with a clear call stand among them for comparison. Calls follow the shape of the dose curve; as a rule, active = well fitted inhibition curve with a large enough effect; inconclusive = small, poorly fitted or top-dose-only effect; inactive = no such curve, though single readings can be large or run the other way. Potencies of inconclusive entries are left out as doubtful fits.

Target: Rap guanine nucleotide exchange factor 3 (Homo sapiens) (UniProt O95398)
Sequence of UniProt O95398 (O95398 whole entry, looked up): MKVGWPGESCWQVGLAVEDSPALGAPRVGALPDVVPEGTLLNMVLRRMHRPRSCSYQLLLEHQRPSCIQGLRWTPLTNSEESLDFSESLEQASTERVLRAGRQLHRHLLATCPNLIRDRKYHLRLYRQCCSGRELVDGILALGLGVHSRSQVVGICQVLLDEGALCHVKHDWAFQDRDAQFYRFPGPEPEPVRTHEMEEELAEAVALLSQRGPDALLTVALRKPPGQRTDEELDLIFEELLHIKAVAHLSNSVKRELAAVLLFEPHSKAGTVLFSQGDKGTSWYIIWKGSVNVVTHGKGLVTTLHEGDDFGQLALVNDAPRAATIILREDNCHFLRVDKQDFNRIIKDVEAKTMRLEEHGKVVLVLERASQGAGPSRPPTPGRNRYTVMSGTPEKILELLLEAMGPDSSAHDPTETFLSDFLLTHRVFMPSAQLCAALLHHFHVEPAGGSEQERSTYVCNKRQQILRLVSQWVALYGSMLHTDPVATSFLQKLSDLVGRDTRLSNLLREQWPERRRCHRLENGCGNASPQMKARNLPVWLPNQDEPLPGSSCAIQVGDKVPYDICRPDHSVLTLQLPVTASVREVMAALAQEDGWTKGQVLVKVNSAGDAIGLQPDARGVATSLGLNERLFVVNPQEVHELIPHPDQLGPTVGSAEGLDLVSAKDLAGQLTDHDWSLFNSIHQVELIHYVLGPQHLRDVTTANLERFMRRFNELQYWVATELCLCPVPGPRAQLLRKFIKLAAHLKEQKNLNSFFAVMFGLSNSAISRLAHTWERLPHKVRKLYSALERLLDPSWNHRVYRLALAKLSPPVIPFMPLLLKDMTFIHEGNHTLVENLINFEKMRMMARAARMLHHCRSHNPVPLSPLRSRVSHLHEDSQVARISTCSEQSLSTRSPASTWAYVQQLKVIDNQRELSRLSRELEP
Assay: qHTS for Antagonist of cAMP-regulated guanine nucleotide exchange factor 3 (EPAC1): primary screen; also: nearly all actives have a fitted effect of over 50% in size;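 as to activity change, negative = inhibition: plate controls were vehicle for no effect and positive control for full effect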
Details: EPAC1 GEF assay, Rap1b-BODIPY-GDP exchange fluorescence; activity change, negative = inhibition: at 115 µM (top of the series)
Potency is read from the fitted curve at half-maximal effect; tags tell the direction and shape of the fitted curve.

SMILES	Potency	activity change, negative = inhibition
CC(C)NC(=S)NC(c1ccccc1)(c1ccccc1)c1ccccc1	inconclusive [inhibitor, single point]	–
COc1ccc(OC)c(CN2CCN(c3ccc(S(=O)(=O)N4CCCC4)cn3)CC2)c1	inconclusive [inhibitor, partial curve]	–
CCn1c(SCc2ccccc2F)nnc1-c1ccncc1	inconclusive [inhibitor, partial curve]	–
O=C(Nc1cccc(O)c1)C1CC(c2cccc(Br)c2)=NO1 (stereo unspecified)	inconclusive [inhibitor, single point]	–
CCOC(=O)C1(CCOc2ccccc2)CCN(Cc2ccc(C)o2)CC1	–	inactive: -9.98%
O=C(COC(=O)CC12CC3CC(CC(C3)C1)C2)Nc1ncc(Cl)cc1Cl	inconclusive [inhibitor, single point]	–
O=c1cc(CSc2nnnn2-c2ccccc2)nc(Nc2ccc(F)cc2)[nH]1	inconclusive [inhibitor, partial curve]	–
CCCCCCNC(=O)c1cc(-c2ccco2)nc2ccccc12	inconclusive [inhibitor, partial curve]	–
CCN(CC)CCNC(=O)c1ccc(NC(=O)c2cc(-c3ccco3)nc3ccccc23)cc1	–	inactive: 5.61%
Cc1ccc(NC(=O)C2CCN(S(=O)(=O)c3ccc4c(c3)NC(=O)C(C)S4)CC2)cc1Cl (stereo unspecified)	–	inactive: -24.6%
CCOc1cccc2cc(-c3nnc(NCc4ccco4)s3)c(=O)oc12	inconclusive [inhibitor, single point]	–
CC(C)CCNC(=O)C(c1ccc(O)cc1)N(C(=O)C1COc2ccccc2O1)c1cccc(O)c1 (stereo unspecified)	inconclusive [inhibitor, full curve]	–
O=C(CO/N=C/c1ccc(OC(F)F)cc1)NC1CCCCCC1	inconclusive [inhibitor, partial curve, poor fit]	–
COC(=O)c1ccc(CNC(=O)C2CCC(=O)N(Cc3cccc(F)c3)C2)cc1 (stereo unspecified)	inconclusive [inhibitor, partial curve]	–
CCOc1ccc(N2C(=O)C3ON(c4ccccc4)C(c4ccco4)C3C2=O)cc1 (stereo unspecified)	inconclusive [inhibitor, partial curve, poor fit]	–
Cc1cc(NC(=O)CSCC(=O)N(C)Cc2ccc(Cl)c(Cl)c2)no1	–	inactive: -4.95%
CC(C)CC1=NN(C(=O)c2ccco2)C(O)(C(F)(F)F)C1 (stereo unspecified)	inconclusive [inhibitor, partial curve, poor fit]	–
CCN(C(=O)COC(=O)c1nc(Cl)ccc1Cl)c1c(N)n(Cc2ccccc2)c(=O)[nH]c1=O	inconclusive [inhibitor, partial curve]	–
COc1ccc(C(=O)Nc2cccc(/C=C(\CCC(=O)O)c3nc4ccccc4s3)c2)cc1	active: 56.2 µM	–
Cc1cccc(N2CCN(CC(=O)NCc3ccc(Cl)cc3)CC2)c1C	–	inactive: -4.77%
COc1cc(C)c(/C=C/C(C)=C/C=C/C(C)=C/C(=O)O)c(C)c1C	inconclusive [inhibitor, partial curve]	–
C[C@@H]1CN([C@H](C)CO)C(=O)c2cccc(NC(=O)c3ccncc3)c2O[C@@H]1CN(C)Cc1ccc(C(=O)O)cc1	–	inactive: 18.8%

SMILES	Potency	activity change, negative = inhibition
Cn1c(SCC(=O)NCc2ccccc2)nc2ccccc21	inconclusive [inhibitor, partial curve]	–
COC(=O)c1sc(N2C(=O)C(O)=C(C(=O)c3ccc(C)o3)C2c2ccc(OC)c(OC)c2)nc1C (stereo unspecified)	–	inactive: 8.58%
CCOC(=O)c1c(-c2ccc(C)cc2)csc1NC(=O)CCN1CC(C)OC(C)C1 (stereo unspecified)	inconclusive [inhibitor, single point]	–
COc1ccc(N(CC(=O)NC2CCCCC2)C(=O)CCC(=O)Nc2nc(C)cs2)cc1OC	–	inconclusive: -30.9% [inhibitor]
COC(=O)c1ccc(C2C(C(C)=O)=C(C)Nc3ncnn32)cc1 (stereo unspecified)	inconclusive [inhibitor, single point]	–
O=C(N/N=C/c1ccccc1O)C(=O)Nc1ccccn1	inconclusive [inhibitor, single point]	–
O=C(Nc1ccc(S(=O)(=O)O)cc1)c1ccc2c(c1)S(=O)(=O)c1ccccc1C2=O	inconclusive [inhibitor, partial curve]	–
CC(C)(C)c1ccc(C(=O)Nc2ccc(S(=O)(=O)Nc3cnc4ccccc4n3)cc2)cc1	inconclusive [inhibitor, single point]	–
Clc1cccc(-c2ccc3nccn3c2)c1Cl	–	inactive: -27%
CCOc1ccccc1NC(=O)c1ccc2c(c1)C(=O)N(CC)C2=O	–	inactive: -8.7%
CC(=O)NS(=O)(=O)c1ccc(N=c2ssc3c2-c2ccc(C)cc2NC3(C)C)cc1	inconclusive [inhibitor, single point]	–
Cn1cc(S(=O)(=O)Nc2cccc(F)c2)c(=O)n(C)c1=O	inconclusive [inhibitor, single point]	–
COc1cc(C2/C(=C(\O)c3ccc4c(c3)OCCO4)C(=O)C(=O)N2Cc2ccco2)ccc1O (stereo unspecified)	inconclusive [inhibitor, single point]	–
Cc1ccc(C(=O)O/N=C\c2ccc(N3CCCCC3)c([N+](=O)[O-])c2)cc1	–	inactive: -9.78%
COc1ccc(NC(=S)N/N=C2\CC(C)(C)Oc3ccc(O)cc32)cc1	–	inactive: -1.68%
Cc1cccc(C)c1-n1nnnc1C1(C)CCC(=O)N1CC(F)(F)F (stereo unspecified)	–	inactive: -23.1%
Cc1ccc(C(=O)NCCn2cc(SCC(=O)Nc3nnc(C)s3)c3ccccc32)cc1	inconclusive [inhibitor, partial curve]	–
O=C1C=C(Nc2cccc3cccnc23)c2ccccc2C1=O	inconclusive [inhibitor, single point]	–
CC(=O)Nc1cccc(-c2csc(Nc3ccc(Cl)cn3)n2)c1	–	inconclusive: -15.1% [inhibitor]
O=C1S/C(=C\C=C\c2ccco2)C(=O)N1c1ccccc1	active: 89.1 µM	–
CCOc1cc(CNc2ccc3cn[nH]c3c2)ccc1OC	inconclusive [inhibitor, partial curve]	–
O=C1C=C(c2c(O)ccc3ccccc23)c2ccccc2C1=O	active: 35.5 µM	–

SMILES	Potency	activity change, negative = inhibition
O=Cc1cn(-c2ccccc2)nc1-c1ccccn1	inconclusive [inhibitor, partial curve]	–
CC(C)Cn1c(-c2cccs2)nc2nc3ccccc3nc21	inconclusive [inhibitor, partial curve]	–
O=C1NC(=Nc2ccccc2Cl)S/C1=C\c1cccc([N+](=O)[O-])c1O	inconclusive [inhibitor, single point]	–
COc1ccc(-c2cc(C(=O)N/N=C/c3cc(OC)c(OC)cc3OC)c3ccccc3n2)cc1	–	inactive: 5.54%
CC(C)CC(C(=O)NC1CCCCC1)N(Cc1cccs1)C(=O)c1snc(C(N)=O)c1N (stereo unspecified)	inconclusive [inhibitor, single point]	–
CCOC(=O)C(=NCC1CCCO1)NNc1cc(Cl)ccc1Cl (stereo unspecified)	inconclusive [inhibitor, single point]	–
Cc1ccc(NC(=O)CSc2nnc(-c3n[nH]c4ccccc34)n2-c2ccccc2)c(C)c1	inconclusive [inhibitor, single point]	–
CCCSc1nc(N)nc(-c2cccs2)c1C#N	inconclusive [inhibitor, full curve, poor fit]	–
Cn1c(=O)c2[nH]c(CCCC(=O)O)nc2n(Cc2ccccc2)c1=S	inconclusive [inhibitor, single point]	–
O=C(OCC#CCSc1nnc(-c2ccc(Br)cc2)o1)c1cccs1	inconclusive [inhibitor, single point]	–
O=C(Nc1ccc(C(O)(C(F)(F)F)C(F)(F)F)cc1)c1ccc(Cl)c([N+](=O)[O-])c1	inconclusive [inhibitor, partial curve, poor fit]	–
O=C(Nc1ccc2c(c1)OCO2)c1ccc(Br)c(S(=O)(=O)N2CCCC2)c1	inconclusive [inhibitor, single point]	–
O=C(CN1C(=O)c2ccccc2C1=O)Nc1cc([N+](=O)[O-])ccc1O	inconclusive [inhibitor, partial curve]	–
Cc1ccccc1NC(=S)NCCc1ccccc1	–	inactive: -3.96%
Cc1c(C(=O)NCc2cccc(C(F)(F)F)c2)sc(=O)n1Cc1cccc(F)c1	inconclusive [inhibitor, partial curve]	–
CC(C)Nc1nc(NC(C)C)nc(N(C#N)CCOc2ccc(Cl)cc2Cl)n1	inconclusive [inhibitor, partial curve]	–
CCC(O)(CC)C(=O)N(Nc1ccc(C)cc1)c1ccc(C)cc1	–	inactive: -11.4%
Cc1cccc(N2C(=O)SC(SC(=Nc3ccccc3)Nc3ccccc3)C2=O)c1 (stereo unspecified)	inconclusive [inhibitor, full curve, poor fit]	–
COc1ccc(-c2noc(-c3ccccc3F)n2)cc1	inconclusive [inhibitor, full curve, poor fit]	–
O=C(CSc1ccccn1)N1CCN(c2ccc(Cl)cc2)CC1	–	inactive: 1.79%
CC(=O)c1ccc(NC(=O)N2CCN(c3cccc(Cl)c3)CC2)cc1	inconclusive [inhibitor, single point]	–
COc1ccc(-c2cn3cc(C)ccc3n2)cc1Br	inconclusive [inhibitor, full curve, poor fit]	–
